# Measured values: the supplement of paper PMC8728848
# This is one part of the list.
# B1: Flo11 (Saccharomyces cerevisiae), Q1H8S8 (protein)
# chain: MGSSHHHHHHSSGLVPRGSHMFPTALVPRGSSEGTSCNSIVNGCPNLDFNWHMDQQNIMQYTLDVTSVSWVQDNTYQITIHVKGKENIDLKYLWSLKIIGVTGPKGTVQLYGYNENTYLIDNPTDFTATFEVYATQDVNSCQVWMPNFQIQFEYLQGSAAQYASSWQWGTTSFDLSTGCNNYDNQGHSQTDFPGFYWNIDCDNNCGGTKSS
# How the values were obtained:
# Test in all cases: glycan array binding signal (z-score within array); higher = stronger binding
# Settings in all cases: glycan notation: IUPAC condensed, linker removed
# [1] = target: Man(a1-3)[Man(a1-6)]Man(a1-6)[Man(a1-3)]Man(b1-4)GlcNAc(b1-4)GlcNAc
# Outline: (§1)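 Columns mapping to the same glycan were averaged after glycan names were converted to IUPAC-condensed notation. The data come from 3228 arrays in the Consortium for Functional Glycomics database, limited to those with an available protein sequence. Binding is reported as a within-array Z-score averaged across arrays of one protein sequence and across linkers.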
# [2] = target: Man(a1-3)[Man(a1-6)]Man(b1-4)GlcNAc(b1-4)GlcNAc
# Outline: as §1
# Man(a1-6)Man = target: Man(a1-6)Man
# Outline: as §1
# Man(b1-4)GlcNAc = target: Man(b1-4)GlcNAc
# Outline: as §1
# Neu5Ac(a2-3)Gal = target: Neu5Ac(a2-3)Gal
# Outline: as §1
# [3] = target: Neu5Ac(a2-3)Gal(b1-3)GalNAc
# Outline: as §1
# [4] = target: Neu5Ac(a2-3)Gal(b1-3)GalNAc(b1-3)Gal(a1-4)Gal(b1-4)Glc
# Outline: as §1
# [5] = target: Neu5Ac(a2-3)Gal(b1-3)GalNAc(b1-3)Gal(b1-4)GlcNAc
# Outline: as §1
# [6] = target: Neu5Ac(a2-3)Gal(b1-3)GalNAc(b1-4)[Neu5Ac(a2-3)]Gal(b1-4)Glc
# Outline: as §1
# [7] = target: Neu5Ac(a2-3)Gal(b1-3)GalNAc6S
# Outline: as §1
# [8] = target: Neu5Ac(a2-3)Gal(b1-3)GlcNAc
# Outline: as §1
# [9] = target: Neu5Ac(a2-3)Gal(b1-3)GlcNAc(b1-3)Gal(b1-3)GlcNAc
# Outline: as §1
# [10] = target: Neu5Ac(a2-3)Gal(b1-3)GlcNAc6S
# Outline: as §1
# [11] = target: Neu5Ac(a2-3)Gal(b1-3)[Fuc(a1-4)]GlcNAc
# Outline: as §1
# [12] = target: Neu5Ac(a2-3)Gal(b1-3)[Fuc(a1-4)]GlcNAc(b1-3)Gal(b1-3)[Fuc(a1-4)]GlcNAc
# Outline: as §1
# [13] = target: Neu5Ac(a2-3)Gal(b1-3)[Fuc(a1-4)]GlcNAc(b1-3)Gal(b1-4)[Fuc(a1-3)]GlcNAc
# Outline: as §1
# [14] = target: Neu5Ac(a2-3)Gal(b1-3)[Neu5Ac(a2-3)Gal(b1-4)]GlcNAc
# Outline: as §1
# [15] = target: Neu5Ac(a2-3)Gal(b1-3)[Neu5Ac(a2-6)]GalNAc
# Outline: as §1
# Neu5Ac(a2-3)Gal(b1-4)Glc = target: Neu5Ac(a2-3)Gal(b1-4)Glc
# Outline: as §1
# [16] = target: Neu5Ac(a2-3)Gal(b1-4)GlcNAc
# Outline: as §1
# [17] = target: Neu5Ac(a2-3)Gal(b1-4)GlcNAc(b1-2)Man(a1-3)[GlcNAc(b1-2)Man(b1-4)GlcNAc(b1-2)Man(a1-6)]Man(b1-4)GlcNAc(b1-4)GlcNAc
# Outline: as §1
# [18] = target: Neu5Ac(a2-3)Gal(b1-4)GlcNAc(b1-2)Man(a1-3)[Neu5Ac(a2-6)Gal(b1-4)GlcNAc(b1-2)Man(a1-6)]Man(b1-4)GlcNAc(b1-4)GlcNAc
# Outline: as §1
# [19] = target: Neu5Ac(a2-3)Gal(b1-4)GlcNAc(b1-3)Gal(b1-3)GlcNAc
# Outline: as §1
# [20] = target: Neu5Ac(a2-3)Gal(b1-4)GlcNAc(b1-3)Gal(b1-4)GlcNAc
# Outline: as §1
# [21] = target: Neu5Ac(a2-3)Gal(b1-4)GlcNAc(b1-3)Gal(b1-4)GlcNAc(b1-3)Gal(b1-4)GlcNAc
# Outline: as §1
# [22] = target: Neu5Ac(a2-3)Gal(b1-4)GlcNAc(b1-3)Gal(b1-4)[Fuc(a1-3)]GlcNAc
# Outline: as §1
# [23] = target: Neu5Ac(a2-3)Gal(b1-4)GlcNAc(b1-3)GalNAc
# Outline: as §1
# [24] = target: Neu5Ac(a2-3)Gal(b1-4)GlcNAc(b1-6)[Gal(b1-3)]GalNAc
# Outline: as §1
# [25] = target: Neu5Ac(a2-3)Gal(b1-4)GlcNAc(b1-6)[Neu5Ac(a2-3)Gal(b1-3)]GalNAc
# Outline: as §1
# [26] = target: Neu5Ac(a2-3)Gal(b1-4)GlcNAc6S
# Outline: as §1
# [27] = target: Neu5Ac(a2-3)Gal(b1-4)[Fuc(a1-3)]GlcNAc
# Outline: as §1
# [28] = target: Neu5Ac(a2-3)Gal(b1-4)[Fuc(a1-3)]GlcNAc(b1-3)Gal
# Outline: as §1
# [29] = target: Neu5Ac(a2-3)Gal(b1-4)[Fuc(a1-3)]GlcNAc(b1-3)Gal(b1-4)GlcNAc
# Outline: as §1
# [30] = target: Neu5Ac(a2-3)Gal(b1-4)[Fuc(a1-3)]GlcNAc(b1-3)Gal(b1-4)[Fuc(a1-3)]GlcNAc(b1-3)Gal(b1-4)[Fuc(a1-3)]GlcNAc
# Outline: as §1
# [31] = target: Neu5Ac(a2-3)Gal(b1-4)[Fuc(a1-3)]GlcNAc(b1-6)[Gal(b1-3)]GalNAc
# Outline: as §1
# [32] = target: Neu5Ac(a2-3)Gal(b1-4)[Fuc(a1-3)]GlcNAc(b1-6)[Neu5Ac(a2-3)Gal(b1-3)]GalNAc
# Outline: as §1
# [33] = target: Neu5Ac(a2-3)Gal(b1-4)[Fuc(a1-3)]GlcNAc6S
# Outline: as §1
# [34] = target: Neu5Ac(a2-3)Gal6S(b1-4)GlcNAc
# Outline: as §1
# [35] = target: Neu5Ac(a2-3)Gal6S(b1-4)[Fuc(a1-3)]GlcNAc
# Outline: as §1
# Neu5Ac(a2-3)GalNAc = target: Neu5Ac(a2-3)GalNAc
# Outline: as §1
# [36] = target: Neu5Ac(a2-3)GalNAc(b1-4)GlcNAc
# Outline: as §1
# [37] = target: Neu5Ac(a2-3)[GalNAc(b1-4)]Gal(b1-4)Glc
# Outline: as §1
# [38] = target: Neu5Ac(a2-3)[GalNAc(b1-4)]Gal(b1-4)GlcNAc
# Outline: as §1
binder,measurement,setting,value
B1,glycan array binding signal (z-score),[1],-0.496
same,glycan array binding signal (z-score),[2],-0.495
same,glycan array binding signal (z-score),Man(a1-6)Man,-0.504
same,glycan array binding signal (z-score),Man(b1-4)GlcNAc,-0.499
same,glycan array binding signal (z-score),Neu5Ac(a2-3)Gal,-0.5
same,glycan array binding signal (z-score),[3],1.29
same,glycan array binding signal (z-score),[4],3.08
same,glycan array binding signal (z-score),[5],1.81
same,glycan array binding signal (z-score),[6],1.08
same,glycan array binding signal (z-score),[7],-0.492
same,glycan array binding signal (z-score),[8],-0.499
same,glycan array binding signal (z-score),[9],2.01
same,glycan array binding signal (z-score),[10],-0.511
same,glycan array binding signal (z-score),[11],-0.504
same,glycan array binding signal (z-score),[12],-0.487
same,glycan array binding signal (z-score),[13],-0.426
same,glycan array binding signal (z-score),[14],-0.511
same,glycan array binding signal (z-score),[15],-0.483
same,glycan array binding signal (z-score),Neu5Ac(a2-3)Gal(b1-4)Glc,-0.503
same,glycan array binding signal (z-score),[16],-0.499
same,glycan array binding signal (z-score),[17],-0.5
same,glycan array binding signal (z-score),[18],-0.497
same,glycan array binding signal (z-score),[19],-0.495
same,glycan array binding signal (z-score),[20],-0.476
same,glycan array binding signal (z-score),[21],2.89
same,glycan array binding signal (z-score),[22],-0.5
same,glycan array binding signal (z-score),[23],-0.398
same,glycan array binding signal (z-score),[24],-0.485
same,glycan array binding signal (z-score),[25],-0.507
same,glycan array binding signal (z-score),[26],-0.499
same,glycan array binding signal (z-score),[27],-0.359
same,glycan array binding signal (z-score),[28],-0.507
same,glycan array binding signal (z-score),[29],1.81
same,glycan array binding signal (z-score),[30],-0.492
same,glycan array binding signal (z-score),[31],1.87
same,glycan array binding signal (z-score),[32],1.82
same,glycan array binding signal (z-score),[33],-0.498
same,glycan array binding signal (z-score),[34],-0.501
same,glycan array binding signal (z-score),[35],-0.496
same,glycan array binding signal (z-score),Neu5Ac(a2-3)GalNAc,-0.497
same,glycan array binding signal (z-score),[36],-0.502
same,glycan array binding signal (z-score),[37],2.92
same,glycan array binding signal (z-score),[38],2.31
